Data published in article PMC4209604.
No constants are given. Whether binding was seen depends on the method and setting. In cells and extracts the contact can be indirect. Some entries that bind do so weakly or less than the wild type. For some of these results: Where a sequence is shown, tags or fusion partners need not be part of it.

The chains behind the UniProt entries cited, without tags or fusion partners.
UniProt P46934: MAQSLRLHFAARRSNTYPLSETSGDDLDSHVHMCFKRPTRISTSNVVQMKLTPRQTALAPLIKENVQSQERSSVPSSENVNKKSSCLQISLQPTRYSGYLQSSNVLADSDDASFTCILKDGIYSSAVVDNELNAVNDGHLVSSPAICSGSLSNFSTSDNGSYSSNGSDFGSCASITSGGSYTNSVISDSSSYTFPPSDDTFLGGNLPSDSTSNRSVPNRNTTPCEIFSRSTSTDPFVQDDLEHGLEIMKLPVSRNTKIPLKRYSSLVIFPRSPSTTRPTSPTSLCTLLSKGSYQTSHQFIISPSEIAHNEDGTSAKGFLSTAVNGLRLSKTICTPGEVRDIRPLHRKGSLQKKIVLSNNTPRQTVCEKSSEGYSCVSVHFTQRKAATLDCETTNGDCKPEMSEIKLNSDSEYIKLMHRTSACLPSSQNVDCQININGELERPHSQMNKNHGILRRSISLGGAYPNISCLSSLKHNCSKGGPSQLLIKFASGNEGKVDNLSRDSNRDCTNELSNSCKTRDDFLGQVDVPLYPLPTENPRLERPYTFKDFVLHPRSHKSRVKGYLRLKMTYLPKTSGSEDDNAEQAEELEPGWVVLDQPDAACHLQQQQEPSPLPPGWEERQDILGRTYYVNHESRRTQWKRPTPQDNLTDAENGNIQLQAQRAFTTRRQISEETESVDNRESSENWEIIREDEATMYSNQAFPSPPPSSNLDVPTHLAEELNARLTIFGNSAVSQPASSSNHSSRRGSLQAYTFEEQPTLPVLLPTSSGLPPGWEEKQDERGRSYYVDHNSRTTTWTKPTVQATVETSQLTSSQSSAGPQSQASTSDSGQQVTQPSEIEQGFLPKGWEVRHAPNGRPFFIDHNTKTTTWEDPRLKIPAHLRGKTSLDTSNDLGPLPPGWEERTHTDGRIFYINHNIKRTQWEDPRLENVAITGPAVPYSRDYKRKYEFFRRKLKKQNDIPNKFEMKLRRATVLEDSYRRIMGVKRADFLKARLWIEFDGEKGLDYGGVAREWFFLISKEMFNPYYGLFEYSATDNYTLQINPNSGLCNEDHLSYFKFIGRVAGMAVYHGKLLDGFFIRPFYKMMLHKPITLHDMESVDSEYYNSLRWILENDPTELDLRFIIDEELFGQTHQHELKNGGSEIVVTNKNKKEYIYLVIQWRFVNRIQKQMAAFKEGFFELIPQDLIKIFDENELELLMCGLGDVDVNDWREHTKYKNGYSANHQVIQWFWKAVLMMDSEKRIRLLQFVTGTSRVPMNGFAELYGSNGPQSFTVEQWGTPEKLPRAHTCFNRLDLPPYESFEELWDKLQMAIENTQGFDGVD
UniProt P84022: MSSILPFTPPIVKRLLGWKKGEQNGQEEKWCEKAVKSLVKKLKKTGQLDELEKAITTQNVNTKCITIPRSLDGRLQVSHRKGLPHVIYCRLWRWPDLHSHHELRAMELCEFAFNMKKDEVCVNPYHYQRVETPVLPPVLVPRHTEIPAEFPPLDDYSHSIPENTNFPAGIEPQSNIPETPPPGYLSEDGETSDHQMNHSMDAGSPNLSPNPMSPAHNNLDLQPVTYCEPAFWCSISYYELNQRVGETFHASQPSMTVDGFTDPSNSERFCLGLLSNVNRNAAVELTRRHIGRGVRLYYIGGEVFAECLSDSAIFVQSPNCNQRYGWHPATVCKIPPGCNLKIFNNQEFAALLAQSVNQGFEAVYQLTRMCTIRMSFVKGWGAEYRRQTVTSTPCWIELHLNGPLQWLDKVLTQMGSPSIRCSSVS
UniProt Q15796: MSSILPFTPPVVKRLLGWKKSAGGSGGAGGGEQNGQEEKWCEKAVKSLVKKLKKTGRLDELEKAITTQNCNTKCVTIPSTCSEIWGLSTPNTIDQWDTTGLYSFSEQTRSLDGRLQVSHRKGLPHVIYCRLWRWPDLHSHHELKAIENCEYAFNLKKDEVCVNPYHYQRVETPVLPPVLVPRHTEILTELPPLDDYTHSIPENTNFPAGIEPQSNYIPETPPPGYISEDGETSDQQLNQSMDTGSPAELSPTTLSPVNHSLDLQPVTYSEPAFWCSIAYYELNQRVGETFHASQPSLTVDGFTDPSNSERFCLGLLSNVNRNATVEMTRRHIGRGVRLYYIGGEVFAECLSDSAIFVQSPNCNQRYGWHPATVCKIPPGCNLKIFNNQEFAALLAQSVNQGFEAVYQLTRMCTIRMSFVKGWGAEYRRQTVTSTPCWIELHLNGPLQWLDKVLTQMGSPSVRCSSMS

T1: His-tagged TMEPAI SIM mutant (186PPNR189 → PAAR) (human) (UniProt Q969W9)
T1 sequence: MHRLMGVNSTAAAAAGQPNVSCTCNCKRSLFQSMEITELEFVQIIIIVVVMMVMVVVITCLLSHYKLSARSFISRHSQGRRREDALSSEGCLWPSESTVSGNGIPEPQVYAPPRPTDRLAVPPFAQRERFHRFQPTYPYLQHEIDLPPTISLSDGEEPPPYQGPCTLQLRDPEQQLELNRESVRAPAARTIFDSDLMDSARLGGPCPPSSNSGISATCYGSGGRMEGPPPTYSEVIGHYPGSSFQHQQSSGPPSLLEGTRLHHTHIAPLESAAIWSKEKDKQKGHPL

T2: His-tagged TMEPAI (transmembrane prostate androgen-induced), wild type (human) (UniProt Q969W9)
T2 sequence: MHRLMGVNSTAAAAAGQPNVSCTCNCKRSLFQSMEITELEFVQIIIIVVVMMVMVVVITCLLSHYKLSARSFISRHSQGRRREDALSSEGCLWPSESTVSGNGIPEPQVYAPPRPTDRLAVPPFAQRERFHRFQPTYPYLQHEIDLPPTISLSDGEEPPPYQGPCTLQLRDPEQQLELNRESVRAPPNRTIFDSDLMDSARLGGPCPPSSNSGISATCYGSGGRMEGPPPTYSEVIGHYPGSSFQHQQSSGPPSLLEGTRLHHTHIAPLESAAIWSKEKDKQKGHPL

T3: His-tagged TMEPAI PY mutant (158PPPY161 → PPPA and 229PPTY232 → PPTA) (human) (UniProt Q969W9)
T3 sequence: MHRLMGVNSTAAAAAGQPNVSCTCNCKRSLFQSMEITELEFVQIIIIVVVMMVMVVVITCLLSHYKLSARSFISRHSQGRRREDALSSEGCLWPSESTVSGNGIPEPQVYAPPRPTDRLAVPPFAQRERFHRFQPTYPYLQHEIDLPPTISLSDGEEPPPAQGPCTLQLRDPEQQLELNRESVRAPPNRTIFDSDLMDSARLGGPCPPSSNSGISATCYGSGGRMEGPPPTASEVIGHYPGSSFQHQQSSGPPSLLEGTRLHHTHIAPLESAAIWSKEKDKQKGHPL


What was measured:
[1] = molecular target: T1, His-tagged TMEPAI SIM mutant (186PPNR189 → PAAR) (human); experiment: pull-down; His-TMEPAI (wild type, PY or SIM mutant) co-expressed with Flag-Smad2 or Flag-Smad3 in MDA-MB-231; lysates 24 h after transfection captured on Co2+-Talon metal beads under native conditions; Western blot for TMEPAI and R-Smads
[2] = molecular target: T2, His-tagged TMEPAI (transmembrane prostate androgen-induced), wild type (human); experiment: as above
[3] = molecular target: T3, His-tagged TMEPAI PY mutant (158PPPY161 → PPPA and 229PPTY232 → PPTA) (human); experiment: as above
[4] = molecular target: NEDD4, a WW-domain containing HECT E3 ligase, endogenous (human (endogenous in MDA-MB-231)) (UniProt P46934); experiment: co-IP; immunoprecipitation by α-NEDD4 rabbit polyclonal antibody from MDA-MB-231 cell lysates treated without or with TGF-β; blots for TMEPAI, NEDD4 and PTEN; rabbit IgG control

Row | binding [1] | binding [2] | binding [3] | binding [4] | Molecule
1 | no binding | binds | binds | – | Flag-tagged Smad3 (from UniProt P84022 1-425)
2 | no binding | binds | binds | – | Flag-tagged Smad2 (from UniProt Q15796 1-467)
3 | – | – | – | binds | TMEPAI (transmembrane prostate androgen-induced), endogenous (protein, UniProt Q969W9 1-287) MHRLMGVNSTAAAAAGQPNVSCTCNCKRSLFQSMEITELEFVQIIIIVVVMMVMVVVITCLLSHYKLSARSFISRHSQGRRREDALSSEGCLWPSESTVSGNGIPEPQVYAPPRPTDRLAVPPFAQRERFHRFQPTYPYLQHEIDLPPTISLSDGEEPPPYQGPCTLQLRDPEQQLELNRESVRAPPNRTIFDSDLMDSARLGGPCPPSSNSGISATCYGSGGRMEGPPPTYSEVIGHYPGSSFQHQQSSGPPSLLEGTRLHHTHIAPLESAAIWSKEKDKQKGHPL
